According to patent US11178870B2 (priority 2017, dated 2021):

What was measured:
Format in all cases: in vivo
Puccinia recondita = assay: Test Example E: Brown rust on wheat; conditions: for control value, Test E (brown rust on wheat): Table 7, Test E; for Test E control value: Brown rust on wheat; for Test E control value (brown rust on wheat): class of control value, Table 7
[1] = tested on: Blumeria graminis f. sp. hordei; assay: Test Example D: Powdery mildew on barley; conditions: for control value, Test D (powdery mildew on barley): Table 7, Test D; for Test D control value: Powdery mildew on barley; for Test D control value (powdery mildew on barley): class of control value, Table 7
Plasmopara viticola = assay: Test Example G: Downy mildew on vine; conditions: for control value, Test G (downy mildew on vine): 250 ppm sprayed (2.5 ml/pot) before inoculation, assessed 7 to 10 days after inoculation; for Test G control value: Downy mildew on vine, 250 ppm sprayed, 7 to 10 days after inoculation; for Test G control value / Test G control value (downy mildew on vine): 2.5 ml/pot; for Test G control value (downy mildew on vine): 250 ppm spray, investigated 7 to 10 days after inoculation
Alternaia brassicicola = assay: Test Example C: Alternaria sooty spot on cabbage; conditions: for control value, Test C (Alternaria sooty spot on cabbage): Table 7, Test C; for Test C control value: Alternaria sooty spot on cabbage; for Test C control value (Alternaria sooty spot on cabbage): class of control value, Table 7
Botrytis cinerea = assay: Test Example B: Gray mold on tomato; conditions: for control value, Test B (gray mold on tomato): Table 7, Test B; for Test B control value: Gray mold on tomato; for Test B control value (gray mold on tomato): class of control value, Table 7

SMILES	control value, Test E (brown rust on wheat) (Puccinia recondita)	control value, Test D (powdery mildew on barley) [1]	control value, Test G (downy mildew on vine) (Plasmopara viticola)	control value, Test C (Alternaria sooty spot on cabbage) (Alternaia brassicicola)	control value, Test B (gray mold on tomato) (Botrytis cinerea)	Test E control value (Puccinia recondita)	Test D control value [1]	Test G control value (Plasmopara viticola)	Test C control value (Alternaia brassicicola)	Test B control value (Botrytis cinerea)	also measured
CCn1c(-c2ccc(F)cc2Br)c(-n2ncc(C)c2Cl)cc(Br)c1=O [Compound 333]	H (H shows the control value more than 50%)	H (H shows the control value more than 50%)	H (H shows the control value more than 50%)	H (H shows the control value more than 50%)	H (H shows the control value more than 50%)	–	–	–	–	–	–
CCn1c(-c2ccc(C#N)cc2F)c(-n2cc(Cl)cn2)cc(Br)c1=O [Compound 280]	H (H shows the control value more than 50%)	L (L shows the control value of 50% or less)	L (L shows the control value of 50% or less)	H (H shows the control value more than 50%)	L (L shows the control value of 50% or less)	–	–	–	–	–	–
CN1C(=O)CCC(c2cccs2)=C1c1c(F)cccc1F [Compound 1]	–	–	–	–	–	L (L shows the control value of 50% or less)	L (L shows the control value of 50% or less)	L (L shows the control value of 50% or less)	L (L shows the control value of 50% or less)	L (L shows the control value of 50% or less)	–
CCn1c(-c2c(F)cc(F)cc2F)c(-n2cc(C=O)cn2)cc(Cl)c1=O [Compound 123]	–	–	–	–	–	L (L shows the control value of 50% or less)	L (L shows the control value of 50% or less)	L (L shows the control value of 50% or less)	H (H shows the control value more than 50%)	H (H shows the control value more than 50%)	–
CCn1c(-c2ccccc2Cl)c(-n2cc(F)cn2)ccc1=O [Compound 350]	H (H shows the control value more than 50%)	H (H shows the control value more than 50%)	H (H shows the control value more than 50%)	H (H shows the control value more than 50%)	H (H shows the control value more than 50%)	–	–	–	–	–	–
COc1cc(F)c(-c2c(-n3cc(Cl)cn3)cc(Br)c(=O)n2CC(F)F)c(F)c1 [Compound 222]	H (H shows the control value more than 50%)	H (H shows the control value more than 50%)	L (L shows the control value of 50% or less)	H (H shows the control value more than 50%)	H (H shows the control value more than 50%)	–	–	–	–	–	–
CCn1c(-c2c(F)cc(F)cc2F)c(-n2cc(Cl)cn2)ccc1=S [Compound 185]	H (H shows the control value more than 50%)	H (H shows the control value more than 50%)	L (L shows the control value of 50% or less)	L (L shows the control value of 50% or less)	H (H shows the control value more than 50%)	–	–	–	–	–	–
Cn1c(-c2c(F)cc(F)cc2F)c(-c2cccnc2Cl)cc(Br)c1=O [Compound 104]	–	–	–	–	–	H (H shows the control value more than 50%)	H (H shows the control value more than 50%)	L (L shows the control value of 50% or less)	H (H shows the control value more than 50%)	H (H shows the control value more than 50%)	–
CCn1c(-c2c(F)cccc2F)c(-c2ocnc2OC)cc(Cl)c1=O [Compound 91]	–	–	–	–	–	L (L shows the control value of 50% or less)	L (L shows the control value of 50% or less)	L (L shows the control value of 50% or less)	H (H shows the control value more than 50%)	L (L shows the control value of 50% or less)	–
O=c1c(Cl)cc(-n2cnc(Cl)c2Cl)c(-c2ccccc2Cl)n1CC(F)F [Compound 232]	H (H shows the control value more than 50%)	H (H shows the control value more than 50%)	L (L shows the control value of 50% or less)	H (H shows the control value more than 50%)	H (H shows the control value more than 50%)	–	–	–	–	–	–
CNn1c(-c2ccc(F)cc2Cl)c(-n2ncc(C)c2Cl)cc(Br)c1=O [Compound 478]	–	–	–	–	–	–	–	–	–	–	Test E control value (brown rust on wheat) (Puccinia recondita): H (H shows the control value more than 50%); Test D control value (powdery mildew on barley) [1]: H (H shows the control value more than 50%); Test G control value (downy mildew on vine) (Plasmopara viticola): L (L shows the control value of 50% or less); Test C control value (Alternaria sooty spot on cabbage) (Alternaia brassicicola): H (H shows the control value more than 50%); Test B control value (gray mold on tomato) (Botrytis cinerea): H (H shows the control value more than 50%)
Cc1ccccc1-c1c(-n2ncc(C)c2Cl)cc(Br)c(=O)n1CC(F)F [Compound 307]	H (H shows the control value more than 50%)	H (H shows the control value more than 50%)	L (L shows the control value of 50% or less)	H (H shows the control value more than 50%)	H (H shows the control value more than 50%)	–	–	–	–	–	–
CCn1c(-c2c(F)cc(OC)cc2F)c(-n2cc(F)cn2)ccc1=O [Compound 308]	H (H shows the control value more than 50%)	H (H shows the control value more than 50%)	L (L shows the control value of 50% or less)	H (H shows the control value more than 50%)	H (H shows the control value more than 50%)	–	–	–	–	–	–
Cn1c(-c2c(F)cc(F)cc2F)c(-c2cccnc2Cl)cc(Cl)c1=O [Compound 100]	–	–	–	–	–	H (H shows the control value more than 50%)	H (H shows the control value more than 50%)	L (L shows the control value of 50% or less)	H (H shows the control value more than 50%)	H (H shows the control value more than 50%)	–
CCn1c(-c2c(F)cccc2F)c(-c2ccsc2C)ccc1=O [Compound 377]	–	–	–	–	–	–	–	–	–	–	Test E control value (brown rust on wheat) (Puccinia recondita): H (H shows the control value more than 50%); Test D control value (powdery mildew on barley) [1]: H (H shows the control value more than 50%); Test G control value (downy mildew on vine) (Plasmopara viticola): L (L shows the control value of 50% or less); Test C control value (Alternaria sooty spot on cabbage) (Alternaia brassicicola): H (H shows the control value more than 50%); Test B control value (gray mold on tomato) (Botrytis cinerea): H (H shows the control value more than 50%)
Cn1c(-c2c(F)cc(F)cc2F)c(-n2cc(Cl)cn2)cc(Br)c1=O [Compound 176]	–	–	–	–	–	H (H shows the control value more than 50%)	H (H shows the control value more than 50%)	L (L shows the control value of 50% or less)	H (H shows the control value more than 50%)	H (H shows the control value more than 50%)	–
O=c1c(Br)cc(-c2sccc2Br)c(-c2c(F)cccc2F)n1CC(F)F [Compound 423]	–	–	–	–	–	–	–	–	–	–	Test E control value (brown rust on wheat) (Puccinia recondita): H (H shows the control value more than 50%); Test D control value (powdery mildew on barley) [1]: H (H shows the control value more than 50%); Test G control value (downy mildew on vine) (Plasmopara viticola): H (H shows the control value more than 50%); Test C control value (Alternaria sooty spot on cabbage) (Alternaia brassicicola): H (H shows the control value more than 50%); Test B control value (gray mold on tomato) (Botrytis cinerea): H (H shows the control value more than 50%)
Cc1cnn(-c2cc(Br)c(=O)n(CC(F)F)c2-c2ccccc2Br)c1Cl [Compound 409]	–	–	–	–	–	–	–	–	–	–	Test E control value (brown rust on wheat) (Puccinia recondita): H (H shows the control value more than 50%); Test D control value (powdery mildew on barley) [1]: H (H shows the control value more than 50%); Test G control value (downy mildew on vine) (Plasmopara viticola): L (L shows the control value of 50% or less); Test C control value (Alternaria sooty spot on cabbage) (Alternaia brassicicola): H (H shows the control value more than 50%); Test B control value (gray mold on tomato) (Botrytis cinerea): H (H shows the control value more than 50%)
CCn1c(-c2ccc(F)cc2Cl)c(-n2cc(Cl)cn2)cc(Br)c1=O [Compound 158]	–	–	–	–	–	H (H shows the control value more than 50%)	H (H shows the control value more than 50%)	L (L shows the control value of 50% or less)	H (H shows the control value more than 50%)	H (H shows the control value more than 50%)	–
CCn1c(-c2c(F)cccc2F)c(C2OCCCO2)cc(Cl)c1=O [Compound 11]	–	–	–	–	–	H (H shows the control value more than 50%)	H (H shows the control value more than 50%)	L (L shows the control value of 50% or less)	H (H shows the control value more than 50%)	L (L shows the control value of 50% or less)	–
CCn1c(-c2c(F)cc(F)cc2F)c(-c2cnco2)cc(Br)c1=O [Compound 89]	–	–	–	–	–	H (H shows the control value more than 50%)	L (L shows the control value of 50% or less)	L (L shows the control value of 50% or less)	H (H shows the control value more than 50%)	H (H shows the control value more than 50%)	–
